According to a collection of fitness landscapes (doi:10.1016/j.celrep.2020.107928):
The full ranking holds about 81,000 sequences; the median of “one-hybrid fitness for binding NBS DNA” is about -0.1, and the highest 2% start at about 0.36. Some of the results follow.

B1: Caulobacter ParB omega fusion; a variant is named by its letters at X, in order, B8GW30 (parent)
chain: MESVVVGEPGMSEGRRGLGRGLSALLGEVDAAPAQAPGEQLGGSREAPIEILQRNPDQPRRTFREEDLEDLSNSIREKGVLQPILVRPSPDTAGEYQIVAGERAWRAAQRAGLKTVPIMVRELDDLAVLEIGIIENVQRADLNVLEEALSYKVLMEKFERTQENIAQTIGKSXSHVANXMRLLXLPDEVQSYLVSGELTAXHARAIAAAADPVALAKQIIEGGLSVRETEALARKAPNLSAGKSKGGRPPRVKDTDTQALESDLSSVLGLDVSIDHRGSTGTLTITYATLEQLDDLCNRLTRGI

Variants of: B1
Experiment: one-hybrid fitness for binding NBS DNA (the Noc-binding site; scaled: cognate 1, non-cognate 0); higher = stronger binding
Details: with NBS DNA site
Summary of the method: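 Bacterial one-hybrid selection in E. coli USO rpoZ- hisB- pyrF- with a HIS3 reporter carrying the site 19 bp from the promoter, screening Caulobacter ParB libraries with four specificity codons randomised (NNS). Cells grew 48 hours at 37°C on M9-minus-histidine plus 0.1 mM IPTG and 5 mM 3-AT. Plasmids before and after selection were Illumina-sequenced, three replicate libraries pooled, and variants under 10 reads dropped. Fitness is the log change in variant-to-wild-type read ratio, rescaled to cognate 1, non-cognate 0.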

Row | Variant | one-hybrid fitness for binding NBS DNA
1 | WGPC | ≤ 0.2
2 | YSQL | ≤ 0.2
3 | KMRC | ≤ 0.2
4 | VTQL | ≤ 0.2
5 | AKDQ | ≤ 0.2
6 | VAWG | ≤ 0.2
7 | ACTY | ≤ 0.2
8 | ASAR | ≤ 0.2
9 | QYGV | ≤ 0.2
10 | TVIA | ≤ 0.2
11 | NESF | ≤ 0.2
12 | EPYR | ≤ 0.2
13 | ARDD | ≤ 0.2
14 | GIPG | ≤ 0.2
15 | RSTY | ≤ 0.2
16 | SLVD | ≤ 0.2
17 | RQND | ≤ 0.2
18 | EAFM | ≤ 0.2
19 | QCRS | 0.748
20 | CGDW | ≤ 0.2
21 | RYDS | ≤ 0.2
22 | VSIS | ≤ 0.2
23 | PWMR | ≤ 0.2
24 | RWYI | ≤ 0.2
25 | YYVR | ≤ 0.2

Row | Variant | one-hybrid fitness for binding NBS DNA
26 | WAYC | ≤ 0.2
27 | VRGA | ≤ 0.2
28 | SVKY | ≤ 0.2
29 | ACCM | ≤ 0.2
30 | HYAI | ≤ 0.2
31 | HWRK | ≤ 0.2
32 | RSNQ | ≤ 0.2
33 | QIVD | ≤ 0.2
34 | CMST | ≤ 0.2
35 | AVCL | ≤ 0.2
36 | YSTP | ≤ 0.2
37 | CKDT | ≤ 0.2
38 | SEYQ | ≤ 0.2
39 | ADNF | ≤ 0.2
40 | HRDT | ≤ 0.2
41 | LREV | ≤ 0.2
42 | RNVE | ≤ 0.2
43 | ESVG | ≤ 0.2
44 | NHSM | ≤ 0.2
45 | QCYA | 0.328
46 | TRQV | ≤ 0.2
47 | DNGV | ≤ 0.2
48 | TREI | ≤ 0.2
49 | RQMF | ≤ 0.2
50 | AYRL | ≤ 0.2

Row | Variant | one-hybrid fitness for binding NBS DNA
51 | LVLG | ≤ 0.2
52 | PFVS | ≤ 0.2
53 | VEET | ≤ 0.2
54 | LLVE | ≤ 0.2
55 | SFSW | ≤ 0.2
56 | DMQR | ≤ 0.2
57 | ENHM | ≤ 0.2
58 | LRHN | ≤ 0.2
59 | PHLV | ≤ 0.2
60 | IRRL | ≤ 0.2
61 | PQKH | ≤ 0.2
62 | LQLC | ≤ 0.2
63 | IIPG | ≤ 0.2
64 | SPPW | ≤ 0.2
65 | EIVS | ≤ 0.2
66 | RRHQ | 0.293
67 | ENNG | ≤ 0.2
68 | RPSG | ≤ 0.2
69 | LPTH | ≤ 0.2
70 | FRVV | ≤ 0.2
71 | NSST | ≤ 0.2
72 | RWRD | ≤ 0.2
73 | QCDL | ≤ 0.2
74 | LGVF | ≤ 0.2
75 | MQMT | ≤ 0.2

Row | Variant | one-hybrid fitness for binding NBS DNA
76 | ASNT | ≤ 0.2
77 | VPPN | ≤ 0.2
78 | LWHS | ≤ 0.2
79 | DTRA | ≤ 0.2
80 | AIED | ≤ 0.2
81 | SDIF | ≤ 0.2
82 | WSHC | ≤ 0.2
83 | IWPG | ≤ 0.2
84 | KVCI | ≤ 0.2
85 | YCRT | ≤ 0.2
86 | CTQC | ≤ 0.2
87 | RQVA | ≤ 0.2
88 | CKVC | ≤ 0.2
89 | NEGT | ≤ 0.2
90 | WLNL | ≤ 0.2
91 | PFAI | ≤ 0.2
92 | LEAI | ≤ 0.2
93 | MYHC | ≤ 0.2
94 | GPNN | ≤ 0.2
95 | TTAY | ≤ 0.2
96 | DINT | ≤ 0.2
97 | LGVH | ≤ 0.2
98 | GMMA | ≤ 0.2
